# Data taken from the supplement of paper PMC8728848.
# The other results are listed elsewhere or left out.
# How the values were obtained:
# Assay in all cases: glycan array binding signal (z-score within array); higher = stronger binding
# Settings in all cases: glycan notation: IUPAC condensed, linker removed
# [1] = target: GlcNAc(a1-6)Gal(b1-4)GlcNAc
# Method in brief: (§1)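 Arrays were curated from the Consortium for Functional Glycomics database, 3228 in total, and kept only where the protein sequence was available. Binding is expressed as a within-array Z-score. This score was averaged across arrays of the same protein sequence at different concentrations or buffers and across linkers, and negative values can be read as non-binding.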
# [2] = target: GlcNAc(b1-2)Gal(b1-3)GalNAc
# Method in brief: as §1
# [3] = target: GlcNAc(b1-2)Man(a1-3)[GlcNAc(b1-2)Man(a1-6)]Man(b1-4)GlcNAc(b1-4)GlcNAc
# Method in brief: as §1
# [4] = target: GlcNAc(b1-2)Man(a1-3)[GlcNAc(b1-2)Man(a1-6)]Man(b1-4)GlcNAc(b1-4)[Fuc(a1-6)]GlcNAc
# Method in brief: as §1
# [5] = target: GlcNAc(b1-2)Man(a1-3)[GlcNAc(b1-4)][GlcNAc(b1-2)Man(a1-6)]Man(b1-4)GlcNAc(b1-4)GlcNAc
# Method in brief: as §1
# [6] = target: GlcNAc(b1-2)Man(a1-3)[GlcNAc(b1-4)][GlcNAc(b1-2)Man(a1-6)]Man(b1-4)GlcNAc(b1-4)[Fuc(a1-6)]GlcNAc
# Method in brief: as §1
# [7] = target: GlcNAc(b1-2)[GlcNAc(b1-4)]Man(a1-3)[GlcNAc(b1-2)Man(a1-6)]Man(b1-4)GlcNAc(b1-4)GlcNAc
# Method in brief: as §1
# [8] = target: GlcNAc(b1-2)[GlcNAc(b1-4)]Man(a1-3)[GlcNAc(b1-4)][GlcNAc(b1-2)Man(a1-6)]Man(b1-4)GlcNAc(b1-4)GlcNAc
# Method in brief: as §1
# [9] = target: GlcNAc(b1-2)[GlcNAc(b1-4)]Man(a1-3)[GlcNAc(b1-4)][GlcNAc(b1-2)[GlcNAc(b1-6)]Man(a1-6)]Man(b1-4)GlcNAc(b1-4)GlcNAc
# Method in brief: as §1
# [10] = target: GlcNAc(b1-2)[GlcNAc(b1-4)]Man(a1-3)[GlcNAc(b1-4)][GlcNAc(b1-2)[GlcNAc(b1-6)]Man(a1-6)]Man(b1-4)GlcNAc(b1-4)[Fuc(a1-6)]GlcNAc
# Method in brief: as §1
# [11] = target: GlcNAc(b1-2)[GlcNAc(b1-6)]Man(a1-6)[GlcNAc(b1-2)Man(a1-3)]Man(b1-4)GlcNAc(b1-4)GlcNAc
# Method in brief: as §1
# [12] = target: GlcNAc(b1-2)[GlcNAc(b1-6)]Man(a1-6)[GlcNAc(b1-2)Man(a1-3)]Man(b1-4)GlcNAc(b1-4)[Fuc(a1-6)]GlcNAc
# Method in brief: as §1
# [13] = target: GlcNAc(b1-2)[GlcNAc(b1-6)]Man(a1-6)[GlcNAc(b1-4)][GlcNAc(b1-2)Man(a1-3)]Man(b1-4)GlcNAc(b1-4)GlcNAc
# Method in brief: as §1
# GlcNAc(b1-3)Fuc = target: GlcNAc(b1-3)Fuc
# Method in brief: as §1
# GlcNAc(b1-3)Gal = target: GlcNAc(b1-3)Gal
# Method in brief: as §1
# [14] = target: GlcNAc(b1-3)Gal(b1-3)GalNAc
# Method in brief: as §1
# GlcNAc(b1-3)Gal(b1-4)Glc = target: GlcNAc(b1-3)Gal(b1-4)Glc
# Method in brief: as §1
# [15] = target: GlcNAc(b1-3)Gal(b1-4)GlcNAc
# Method in brief: as §1
# [16] = target: GlcNAc(b1-3)Gal(b1-4)GlcNAc(b1-2)Man(a1-3)[GlcNAc(b1-3)Gal(b1-4)GlcNAc(b1-2)Man(a1-6)]Man(b1-4)GlcNAc(b1-4)GlcNAc
# Method in brief: as §1
# [17] = target: GlcNAc(b1-3)Gal(b1-4)GlcNAc(b1-2)Man(a1-3)[GlcNAc(b1-3)Gal(b1-4)GlcNAc(b1-2)Man(a1-6)]Man(b1-4)GlcNAc(b1-4)[Fuc(a1-6)]GlcNAc
# Method in brief: as §1
# [18] = target: GlcNAc(b1-3)Gal(b1-4)GlcNAc(b1-2)[GlcNAc(b1-3)Gal(b1-4)GlcNAc(b1-6)]Man(a1-6)[GlcNAc(b1-3)Gal(b1-4)GlcNAc(b1-2)Man(a1-3)]Man(b1-4)GlcNAc(b1-4)GlcNAc
# Method in brief: as §1
# [19] = target: GlcNAc(b1-3)Gal(b1-4)GlcNAc(b1-3)Gal(b1-4)GlcNAc
# Method in brief: as §1
# [20] = target: GlcNAc(b1-3)Gal(b1-4)GlcNAc(b1-3)Gal(b1-4)GlcNAc(b1-2)Man(a1-3)[GlcNAc(b1-3)Gal(b1-4)GlcNAc(b1-3)Gal(b1-4)GlcNAc(b1-2)Man(a1-6)]Man(b1-4)GlcNAc(b1-4)GlcNAc
# Method in brief: as §1
# [21] = target: GlcNAc(b1-3)Gal(b1-4)GlcNAc(b1-3)Gal(b1-4)GlcNAc(b1-2)Man(a1-3)[GlcNAc(b1-3)Gal(b1-4)GlcNAc(b1-3)Gal(b1-4)GlcNAc(b1-2)Man(a1-6)]Man(b1-4)GlcNAc(b1-4)[Fuc(a1-6)]GlcNAc
# Method in brief: as §1
# [22] = target: GlcNAc(b1-3)Gal(b1-4)GlcNAc(b1-3)Gal(b1-4)GlcNAc(b1-2)[GlcNAc(b1-3)Gal(b1-4)GlcNAc(b1-3)Gal(b1-4)GlcNAc(b1-6)]Man(a1-6)[GlcNAc(b1-3)Gal(b1-4)GlcNAc(b1-3)Gal(b1-4)GlcNAc(b1-2)Man(a1-3)]Man(b1-4)GlcNAc(b1-4)[Fuc(a1-6)]GlcNAc
# Method in brief: as §1
# [23] = target: GlcNAc(b1-3)Gal(b1-4)GlcNAc(b1-3)Gal(b1-4)GlcNAc(b1-3)Gal(b1-4)GlcNAc(b1-2)Man(a1-3)[GlcNAc(b1-3)Gal(b1-4)GlcNAc(b1-3)Gal(b1-4)GlcNAc(b1-3)Gal(b1-4)GlcNAc(b1-2)Man(a1-6)]Man(b1-4)GlcNAc(b1-4)GlcNAc
# Method in brief: as §1
# [24] = target: GlcNAc(b1-3)Gal(b1-4)GlcNAc(b1-3)Gal(b1-4)GlcNAc(b1-3)Gal(b1-4)GlcNAc(b1-2)Man(a1-3)[GlcNAc(b1-3)Gal(b1-4)GlcNAc(b1-3)Gal(b1-4)GlcNAc(b1-3)Gal(b1-4)GlcNAc(b1-2)Man(a1-6)]Man(b1-4)GlcNAc(b1-4)[Fuc(a1-6)]GlcNAc
# Method in brief: as §1
# [25] = target: GlcNAc(b1-3)Gal(b1-4)GlcNAc(b1-3)Gal(b1-4)GlcNAc(b1-3)Gal(b1-4)GlcNAc(b1-2)[GlcNAc(b1-3)Gal(b1-4)GlcNAc(b1-3)Gal(b1-4)GlcNAc(b1-3)Gal(b1-4)GlcNAc(b1-6)]Man(a1-6)[GlcNAc(b1-3)Gal(b1-4)GlcNAc(b1-3)Gal(b1-4)GlcNAc(b1-3)Gal(b1-4)GlcNAc(b1-2)Man(a1-3)]Man(b1-4)GlcNAc(b1-4)[Fuc(a1-6)]GlcNAc
# Method in brief: as §1
# [26] = target: GlcNAc(b1-3)Gal(b1-4)GlcNAc(b1-3)Gal(b1-4)GlcNAc(b1-3)Gal(b1-4)GlcNAc(b1-3)Gal(b1-4)GlcNAc(b1-2)Man(a1-3)[GlcNAc(b1-3)Gal(b1-4)GlcNAc(b1-3)Gal(b1-4)GlcNAc(b1-3)Gal(b1-4)GlcNAc(b1-3)Gal(b1-4)GlcNAc(b1-2)Man(a1-6)]Man(b1-4)GlcNAc(b1-4)GlcNAc
# Method in brief: as §1
# [27] = target: GlcNAc(b1-3)Gal(b1-4)GlcNAc(b1-3)Gal(b1-4)GlcNAc(b1-3)Gal(b1-4)GlcNAc(b1-3)Gal(b1-4)GlcNAc(b1-2)Man(a1-3)[GlcNAc(b1-3)Gal(b1-4)GlcNAc(b1-3)Gal(b1-4)GlcNAc(b1-3)Gal(b1-4)GlcNAc(b1-3)Gal(b1-4)GlcNAc(b1-2)Man(a1-6)]Man(b1-4)GlcNAc(b1-4)[Fuc(a1-6)]GlcNAc
# Method in brief: as §1
# [28] = target: GlcNAc(b1-3)Gal(b1-4)GlcNAc(b1-3)Gal(b1-4)GlcNAc(b1-3)Gal(b1-4)GlcNAc(b1-3)Gal(b1-4)GlcNAc(b1-2)[GlcNAc(b1-3)Gal(b1-4)GlcNAc(b1-3)Gal(b1-4)GlcNAc(b1-3)Gal(b1-4)GlcNAc(b1-3)Gal(b1-4)GlcNAc(b1-6)]Man(a1-6)[GlcNAc(b1-3)Gal(b1-4)GlcNAc(b1-3)Gal(b1-4)GlcNAc(b1-3)Gal(b1-4)GlcNAc(b1-3)Gal(b1-4)GlcNAc(b1-2)Man(a1-3)]Man(b1-4)GlcNAc(b1-4)[Fuc(a1-6)]GlcNAc
# Method in brief: as §1
# [29] = target: GlcNAc(b1-3)Gal(b1-4)GlcNAc(b1-3)Gal(b1-4)GlcNAc(b1-3)GalNAc
# Method in brief: as §1
# [30] = target: GlcNAc(b1-3)Gal(b1-4)GlcNAc(b1-3)GalNAc
# Method in brief: as §1
# [31] = target: GlcNAc(b1-3)Gal(b1-4)GlcNAc(b1-3)[GlcNAc(b1-3)Gal(b1-4)GlcNAc(b1-3)]GalNAc
# Method in brief: as §1
# [32] = target: GlcNAc(b1-3)Gal(b1-4)GlcNAc(b1-6)[Gal(b1-3)]GalNAc
# Method in brief: as §1
# [33] = target: GlcNAc(b1-3)Gal(b1-4)GlcNAc(b1-6)[GlcNAc(b1-3)Gal(b1-3)]GalNAc
# Method in brief: as §1
# [34] = target: GlcNAc(b1-3)Gal(b1-4)GlcNAc(b1-6)[GlcNAc(b1-3)]Gal(b1-4)GlcNAc
# Method in brief: as §1
# GlcNAc(b1-3)GalNAc = target: GlcNAc(b1-3)GalNAc
# Method in brief: as §1
# GlcNAc(b1-3)Man = target: GlcNAc(b1-3)Man
# Method in brief: as §1
# [35] = target: GlcNAc(b1-3)[GlcNAc(b1-4)][GlcNAc(b1-6)]GlcNAc
# Method in brief: as §1
# [36] = target: GlcNAc(b1-3)[GlcNAc(b1-6)]Gal(b1-4)GlcNAc
# Method in brief: as §1
# [37] = target: GlcNAc(b1-3)[GlcNAc(b1-6)]GalNAc
# Method in brief: as §1
# [38] = target: GlcNAc(b1-4)Gal(b1-4)GlcNAc
# Method in brief: as §1
# GlcNAc(b1-4)GlcNAc = target: GlcNAc(b1-4)GlcNAc
# Method in brief: as §1
# [39] = target: GlcNAc(b1-4)GlcNAc(b1-4)GlcNAc
# Method in brief: as §1
binder,measurement,setting,value
"LgFlo1 (Saccharomyces pastorianus), B3IUA8 (protein) SGSTQACLPVGSRKNGMNVNFYKYSLQDSTTYSDPQYMAYKYSDTKKLGSVSGQTHLSIYYGPNTAFWNTASWSSDLFGFYTTPTNVTVEMTGYFLPPQTGSYTFKFATVDDSAILSVGGSIAFECCAQEQPPITSTDFTINGIKPWDAATPTDIKGSTYMYAGYYYPIKIVYSNAKALARLPVSVVLPDGTEVNDDFEGYVYSFDDDLSQSNCTIPDPSKHTTS",glycan array binding signal (z-score),[1],-0.389
same,glycan array binding signal (z-score),[2],-0.049
same,glycan array binding signal (z-score),[3],-0.139
same,glycan array binding signal (z-score),[4],-0.337
same,glycan array binding signal (z-score),[5],-0.511
same,glycan array binding signal (z-score),[6],-0.212
same,glycan array binding signal (z-score),[7],-0.18
same,glycan array binding signal (z-score),[8],1.6
same,glycan array binding signal (z-score),[9],-0.254
same,glycan array binding signal (z-score),[10],-0.09
same,glycan array binding signal (z-score),[11],-0.099
same,glycan array binding signal (z-score),[12],0.371
same,glycan array binding signal (z-score),[13],-0.441
same,glycan array binding signal (z-score),GlcNAc(b1-3)Fuc,-0.332
same,glycan array binding signal (z-score),GlcNAc(b1-3)Gal,-0.087
same,glycan array binding signal (z-score),[14],-0.312
same,glycan array binding signal (z-score),GlcNAc(b1-3)Gal(b1-4)Glc,-0.18
same,glycan array binding signal (z-score),[15],-0.197
same,glycan array binding signal (z-score),[16],-0.306
same,glycan array binding signal (z-score),[17],-0.266
same,glycan array binding signal (z-score),[18],-0.329
same,glycan array binding signal (z-score),[19],-0.265
same,glycan array binding signal (z-score),[20],0.397
same,glycan array binding signal (z-score),[21],-0.247
same,glycan array binding signal (z-score),[22],0.429
same,glycan array binding signal (z-score),[23],-0.028
same,glycan array binding signal (z-score),[24],-0.074
same,glycan array binding signal (z-score),[25],0.151
same,glycan array binding signal (z-score),[26],-0.257
same,glycan array binding signal (z-score),[27],-0.261
same,glycan array binding signal (z-score),[28],-0.115
same,glycan array binding signal (z-score),[29],-0.283
same,glycan array binding signal (z-score),[30],-0.337
same,glycan array binding signal (z-score),[31],-0.228
same,glycan array binding signal (z-score),[32],-0.44
same,glycan array binding signal (z-score),[33],-0.433
same,glycan array binding signal (z-score),[34],-0.238
same,glycan array binding signal (z-score),GlcNAc(b1-3)GalNAc,0.068
same,glycan array binding signal (z-score),GlcNAc(b1-3)Man,-0.469
same,glycan array binding signal (z-score),[35],-0.403
same,glycan array binding signal (z-score),[36],-0.276
same,glycan array binding signal (z-score),[37],-0.027
same,glycan array binding signal (z-score),[38],-0.297
same,glycan array binding signal (z-score),GlcNAc(b1-4)GlcNAc,-0.042
same,glycan array binding signal (z-score),[39],-0.327
